Measured values published in the supplement of paper PMC4967469.
The IC50 comes from the fitted curve, where viability falls to half of the control; a fit beyond the top or the lowest dose is shown as a bound at that dose. The AUC spans the tested range (256-fold, ending at the top dose) of the same fit; it is 1 without any effect and falls as sensitivity rises. For part of these data: The top dose, if marked as inferred, comes from the curve model; the source does not state it.

What was measured:
Experiment in all cases: Viability of human cancer cell lines after 72 h of drug (GDSC screen)
Paclitaxel = compound: CC(=O)O[C@H]1C(=O)[C@@]2(C)[C@H]([C@H](OC(=O)c3ccccc3)[C@]3(O)C[C@H](OC(=O)[C@H](O)[C@@H](NC(=O)c4ccccc4)c4ccccc4)C(C)=C1C3(C)C)[C@]1(OC(C)=O)CO[C@@H]1C[C@@H]2O [Paclitaxel]; conditions: top dose 0.1024 µM
Method: (§1)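 Human cancer cell lines in 384-well plates, medium with 10% serum, drug for 72 h over a 256-fold dose range (nine 2-fold or five 4-fold steps up to the top dose). Adherent lines were fixed and stained with the nucleic acid dye Syto60, suspension lines read with resazurin; signal relative to control wells, capped at 0 and 100%. One two-parameter sigmoid per drug and line, fitted in a mixed model over all curves with the slope shared within a line.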

Bortezomib = compound: CC(C)C[C@H](NC(=O)[C@H](Cc1ccccc1)NC(=O)c1cnccn1)B(O)O [Bortezomib]; conditions: top dose 0.02 µM
Method: as §1

Obatoclax mesylate = compound: COC1=CC(c2cc3ccccc3[nH]2)=N/C1=C\c1[nH]c(C)cc1C [Obatoclax mesylate]; conditions: top dose 16 µM
Method: as §1

CP724714 = compound: COCC(=O)NC/C=C/c1ccc2ncnc(Nc3ccc(Oc4ccc(C)nc4)c(C)c3)c2c1 [CP724714]; conditions: top dose 10.24 µM; top dose inferred
Method: as §1

STF-62247 = compound: Cc1cccc(Nc2nc(-c3ccncc3)cs2)c1 [STF-62247]; conditions: top dose 10.24 µM; top dose inferred
Method: as §1

CX-5461 = compound: Cc1cnc(CNC(=O)c2c(=O)c3ccc(N4CCCN(C)CC4)nc3n3c2sc2ccccc23)cn1 [CX-5461]; conditions: top dose 10.24 µM; top dose inferred
Method: as §1

| Cell Line | AUC (Paclitaxel) | IC50 (Paclitaxel) | AUC (Bortezomib) | IC50 (Bortezomib) | AUC (Obatoclax mesylate) | IC50 (Obatoclax mesylate) | AUC (CP724714) | IC50 (CP724714) | AUC (STF-62247) | IC50 (STF-62247) | AUC (CX-5461) | IC50 (CX-5461) |
| --- | --- | --- | --- | --- | --- | --- | --- | --- | --- | --- | --- | --- |
| NCI-H720 (lung carcinoid, suspension) | 0.981 | > 102 nM | 0.808 | 9.31 nM | 0.842 | 9890 nM | 0.992 | > 10.2 µM | 0.979 | > 10.2 µM | 0.992 | > 10.2 µM |
| NCI-H747 (large intestine, adherent) | 0.653 | 18.8 nM | 0.361 | 0.474 nM | 0.262 | 177 nM | 0.924 | > 10.2 µM | 0.911 | > 10.2 µM | 0.944 | > 10.2 µM |
| NCI-H748 (small cell lung carcinoma, suspension) | 0.792 | 61.2 nM | 0.628 | 3.12 nM | 0.773 | 8020 nM | 0.98 | > 10.2 µM | 0.973 | > 10.2 µM | 0.792 | 6.12 µM |
| NCI-H847 (small cell lung carcinoma, adherent) | 0.54 | 8.05 nM | 0.586 | 2.05 nM | 0.491 | 950 nM | 0.981 | > 10.2 µM | 0.993 | > 10.2 µM | 0.555 | 0.88 µM |
| NCI-H1092 (small cell lung carcinoma, suspension) | 0.946 | > 102 nM | 0.575 | 2.01 nM | 0.634 | 2350 nM | 0.979 | > 10.2 µM | 0.99 | > 10.2 µM | 0.943 | > 10.2 µM |
| NCI-H1155 (large cell lung carcinoma, suspension) | 0.935 | > 102 nM | 0.875 | 13.9 nM | 0.753 | 4530 nM | 0.99 | > 10.2 µM | 0.99 | > 10.2 µM | 0.883 | 7.6 µM |
| NCI-H1304 (small cell lung carcinoma, suspension) | 0.816 | 62.6 nM | 0.816 | 12.2 nM | 0.592 | 1820 nM | 0.988 | > 10.2 µM | 0.987 | > 10.2 µM | 0.987 | > 10.2 µM |
| NCI-H1355 (lung adenocarcinoma, adherent) | 0.551 | 9.4 nM | 0.447 | 0.839 nM | 0.262 | 151 nM | 0.966 | > 10.2 µM | 0.976 | > 10.2 µM | 0.978 | > 10.2 µM |
| NCI-H1395 (lung adenocarcinoma, adherent) | 0.947 | > 102 nM | 0.909 | > 20 nM | 0.825 | 14200 nM | 0.972 | > 10.2 µM | 0.969 | > 10.2 µM | 0.936 | > 10.2 µM |
| NCI-H1436 (small cell lung carcinoma, suspension) | 0.617 | 14.1 nM | 0.87 | > 20 nM | 0.554 | 1440 nM | 0.984 | > 10.2 µM | 0.985 | > 10.2 µM | 0.868 | > 10.2 µM |
| NCI-H1581 (large cell lung carcinoma, semi-adherent) | 0.797 | 44 nM | 0.758 | 6.45 nM | 0.625 | 2150 nM | 0.965 | > 10.2 µM | 0.98 | > 10.2 µM | 0.99 | > 10.2 µM |
| NCI-H1648 (lung adenocarcinoma, adherent) | 0.463 | 5.05 nM | 0.698 | 4.67 nM | 0.209 | 131 nM | 0.943 | > 10.2 µM | 0.972 | > 10.2 µM | 0.752 | 3.59 µM |
| NCI-H1666 (lung adenocarcinoma, semi-adherent) | 0.987 | > 102 nM | 0.965 | > 20 nM | 0.583 | 1730 nM | 0.987 | > 10.2 µM | 0.987 | > 10.2 µM | 0.979 | > 10.2 µM |
| NCI-H1694 (small cell lung carcinoma, suspension) | 0.902 | > 102 nM | 0.786 | 8.59 nM | 0.548 | 1350 nM | 0.969 | > 10.2 µM | 0.971 | > 10.2 µM | 0.847 | 7.51 µM |
| NCI-H1770 (non-small cell lung carcinoma, suspension) | 0.992 | > 102 nM | 0.97 | > 20 nM | 0.144 | 95.7 nM | 0.987 | > 10.2 µM | 0.992 | > 10.2 µM | 0.992 | > 10.2 µM |
| NCI-H1836 (small cell lung carcinoma, suspension) | 0.809 | 60.2 nM | 0.852 | 18 nM | 0.836 | 12200 nM | 0.985 | > 10.2 µM | 0.987 | > 10.2 µM | 0.858 | 9.83 µM |
| NCI-H1838 (lung adenocarcinoma, adherent) | 0.96 | > 102 nM | 0.985 | > 20 nM | 0.954 | > 16000 nM | 0.986 | > 10.2 µM | 0.979 | > 10.2 µM | 0.983 | > 10.2 µM |
| NCI-H1869 (lung squamous cell carcinoma, adherent) | 0.872 | > 102 nM | 0.696 | 4.79 nM | 0.312 | 275 nM | 0.96 | > 10.2 µM | 0.983 | > 10.2 µM | 0.959 | > 10.2 µM |
| NCI-H1975 (lung adenocarcinoma, adherent) | 0.598 | 12.4 nM | 0.254 | 0.218 nM | 0.382 | 450 nM | 0.961 | > 10.2 µM | 0.981 | > 10.2 µM | 0.782 | 4.95 µM |
| NCI-H2081 (small cell lung carcinoma, suspension) | 0.974 | > 102 nM | 0.798 | 10.2 nM | 0.481 | 887 nM | 0.982 | > 10.2 µM | 0.975 | > 10.2 µM | 0.967 | > 10.2 µM |
